# In the supplement of paper PMC4967469:
# Experiments:
# Experiment in all cases: Viability of human cancer cell lines after 72 h of drug (GDSC screen)
# JW-7-52-1 = compound: CCC(=O)N1CCN(c2ccc(-n3c(=O)ccc4cnc5ccc(-c6cnc7ccccc7c6)cc5c43)cc2C(F)(F)F)CC1 [JW-7-52-1]; conditions: top dose 1.2 µM; top dose inferred
# Protocol: (§1)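 Human cancer cell lines in 384-well plates, medium with 10% serum, drug for 72 h over a 256-fold dose range (nine 2-fold or five 4-fold steps up to the top dose). Adherent lines were fixed and stained with the nucleic acid dye Syto60, suspension lines read with resazurin; signal relative to control wells, capped at 0 and 100%. One two-parameter sigmoid per drug and line, fitted in a mixed model over all curves with the slope shared within a line.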
# Z-LLNle-CHO = compound: CCCC[C@@H](C=O)NC(=O)[C@H](CC(C)C)NC(=O)[C@H](CC(C)C)NC(=O)OCc1ccccc1 [Z-LLNle-CHO]; conditions: top dose 2.56 µM; top dose inferred
# Protocol: as §1
# ZG-10 = compound: CN(C)C/C=C/C(=O)Nc1ccc(C(=O)Nc2cccc(Nc3nccc(-c4cccnc4)n3)c2)cc1 [ZG-10]; conditions: top dose 10 µM; top dose inferred
# Protocol: as §1
# Tubastatin A = compound: CN1CCc2c(c3ccccc3n2Cc2ccc(C(=O)NO)cc2)C1 [Tubastatin A]; conditions: top dose 20 µM
# Protocol: as §1
# Rapamycin = compound: CO[C@H]1C[C@@H]2CC[C@@H](C)[C@@](O)(O2)C(=O)C(=O)N2CCCC[C@H]2C(=O)O[C@H]([C@H](C)C[C@@H]2CC[C@@H](O)[C@H](OC)C2)CC(=O)[C@H](C)/C=C(\C)[C@@H](O)[C@@H](OC)C(=O)[C@H](C)C[C@H](C)/C=C/C=C/C=C/1C [Rapamycin]; conditions: top dose 0.1 µM; top dose inferred
# Protocol: as §1
# XL-880 = compound: COc1cc2c(Oc3ccc(NC(=O)C4(C(=O)Nc5ccc(F)cc5)CC4)cc3F)ccnc2cc1OCCCN1CCOCC1 [XL-880]; conditions: top dose 5.12 µM; top dose inferred
# Protocol: as §1
# Temozolomide = compound: Cn1nnc2c(C(N)=O)ncn2c1=O [Temozolomide]; conditions: top dose 30 µM
# Protocol: as §1
# CI-1040 = compound: O=C(NOCC1CC1)c1ccc(F)c(F)c1Nc1ccc(I)cc1Cl [CI-1040]; conditions: top dose 10 µM; top dose inferred
# Protocol: as §1
# IPA-3 = compound: Oc1ccc2ccccc2c1SSc1c(O)ccc2ccccc12 [IPA-3]; conditions: top dose 32 µM; top dose inferred
# Protocol: as §1
Cell Line,AUC (JW-7-52-1),IC50 (JW-7-52-1) [nM],AUC (Z-LLNle-CHO),IC50 (Z-LLNle-CHO) [nM],AUC (ZG-10),IC50 (ZG-10) [nM],AUC (Tubastatin A),IC50 (Tubastatin A) [nM],AUC (Rapamycin),IC50 (Rapamycin) [nM],AUC (XL-880),IC50 (XL-880) [nM],AUC (Temozolomide),IC50 (Temozolomide) [nM],AUC (CI-1040),IC50 (CI-1040) [nM],AUC (IPA-3),IC50 (IPA-3) [nM]
"RPMI-8866 (chronic myeloid leukaemia, suspension)",0.968,> 1200,0.792,1070,0.584,1050,0.841,12500,0.988,> 100,0.707,1170,0.923,> 30000,0.566,936,0.953,> 32000
"OCI-AML3 (acute myeloid leukaemia, suspension)",0.841,668,0.81,1110,0.636,1400,0.793,7690,0.991,> 100,0.871,3680,0.99,> 30000,0.618,1260,0.717,7410
"LB2241-RCC (kidney, adherent)",0.982,> 1200,0.729,786,0.664,1900,0.984,> 20000,0.972,> 100,0.844,4340,0.982,> 30000,0.7,2460,0.73,9890
"L-428 (Hodgkin lymphoma, suspension)",0.565,110,0.853,1630,0.887,8850,0.989,> 20000,0.851,63,0.871,3850,0.992,> 30000,0.973,> 10000,0.863,22300
"ES-2 (ovary, adherent)",0.642,175,0.821,1260,0.928,> 10000,0.95,> 20000,0.972,> 100,0.645,765,0.982,> 30000,0.828,5190,0.863,22400
"SLVL (B-cell lymphoma, suspension)",0.472,62.7,0.791,1230,0.62,1360,0.875,> 20000,0.649,16.6,0.595,592,0.937,> 30000,0.883,> 10000,0.804,17200
"KINGS-1 (glioma, adherent)",0.458,55.2,0.699,728,0.805,7490,0.966,> 20000,0.623,15.5,0.467,252,0.967,> 30000,0.923,> 10000,0.979,> 32000
"NCI-H1304 (small cell lung carcinoma, suspension)",0.854,1060,0.898,> 2560,0.797,5130,0.985,> 20000,0.789,48.1,0.779,2260,0.981,> 30000,0.978,> 10000,0.984,> 32000
"ALL-PO (lymphoblastic leukaemia, suspension)",0.452,54.9,0.759,939,0.577,1030,0.65,3350,0.911,> 100,0.119,< 20,0.974,> 30000,0.51,666,0.771,13000
"NB10 (neuroblastoma, adherent)",0.893,> 1200,0.963,> 2560,0.855,7640,0.988,> 20000,0.966,> 100,0.518,357,0.966,> 30000,0.764,3550,0.816,17100
"TGW (neuroblastoma, adherent)",0.76,367,0.89,2210,0.991,> 10000,0.724,4840,0.973,> 100,0.524,368,0.984,> 30000,0.865,6840,0.76,9830
"MLMA (hairy cell leukaemia, semi-adherent)",0.539,95.6,0.875,2550,0.509,663,0.758,6990,0.756,34.3,0.698,1160,0.977,> 30000,0.927,> 10000,0.762,11500
"OVCAR-4 (ovary, adherent)",0.371,27.7,0.768,1450,0.76,5260,0.908,> 20000,0.67,23.6,0.67,1210,0.973,> 30000,0.813,9160,0.836,> 32000
"NB(TU)1-10 (neuroblastoma, adherent)",0.671,209,0.95,> 2560,0.993,> 10000,0.944,> 20000,0.975,> 100,0.4,177,0.992,> 30000,0.868,7140,0.826,16000

# Lines with a small IC50 respond at low doses; a limit (>, <) means that the fit lies beyond the doses tested. For AUC the same curve is integrated over the 256-fold range of doses and scaled to a fraction; it is 1 without any effect and falls as sensitivity rises. For part of these data: Where the top dose is marked as inferred, it is not printed in the source and was worked back from the curve model.
